In patent US9931327B2, “Derivatives of 1-phenyl-2-pyridinyl alkyl alcohols as phosphodiesterase inhibitors” (Chiesi Farmaceutici S.p.A., priority 2011, dated 2018):
Some results were stated once for a whole list of compounds, not compound by compound.

test system: T1, PDE4; assay: In vitro determination of PDE4 inhibitory activity in the cell free assay (cAMP disappearance, U937 cell lysate supernatant); assay type: biochemical; details: U937 human monocytic cell lysate supernatant, compounds of the invention, read-out: PDE4 inhibition (IC50, 50% inhibition of cAMP disappearance)
T1 construct: PDE4 activity was determined in U937 human monocytic supernatants cells lysate

| Compound | IC50 |
| --- | --- |
| O=C(O[C@@H](Cc1c(Cl)c[n+]([O-])cc1Cl)c1ccc(OC(F)F)c(OCC2CC2)c1)[C@@H]1SCCN1S(=O)(=O)CCc1ccccc1 [Compound 224, 3,5-dichloro-4-((S)-2-(3-(cyclopropylmethoxy)-4-(difluoromethoxy)phenyl)-2-((S)-3-(phenethylsulfonyl)thiazolidine-2-carbonyloxy)ethyl)pyridine 1-oxide] | < 0.1 nM |
| O=C(O[C@@H](Cc1c(Cl)c[n+]([O-])cc1Cl)c1ccc(OC(F)F)c(OCC2CC2)c1)[C@@H]1CCCN1S(=O)(=O)Cc1ccccc1 [Compound 225, 4-((S)-2-((S)-1-(benzylsulfonyl)pyrrolidine-2-carbonyloxy)-2-(3-(cyclopropylmethoxy)-4-(difluoromethoxy)phenyl)ethyl)-3,5-dichloropyridine 1-oxide] | < 0.1 nM |
| CN1C(=O)Cc2cc(S(=O)(=O)N3CSC[C@H]3C(=O)O[C@@H](Cc3c(Cl)c[n+]([O-])cc3Cl)c3ccc(OC(F)F)c(OCC4CC4)c3)ccc21 [Compound 226] | < 0.1 nM |
| O=C(O[C@@H](Cc1c(Cl)c[n+]([O-])cc1Cl)c1ccc(OC(F)F)c(OCC2CC2)c1)[C@@H]1CCCN(S(=O)(=O)c2ccccc2)C1 [Compound 227] | < 0.1 nM |
| CN(C)C(=O)c1cccc(S(=O)(=O)N2CCC[C@@H](C(=O)O[C@@H](Cc3c(Cl)c[n+]([O-])cc3Cl)c3ccc(OC(F)F)c(OCC4CC4)c3)C2)c1 [Compound 228] | < 0.1 nM |
| O=C(O[C@@H](Cc1c(Cl)c[n+]([O-])cc1Cl)c1ccc(OC(F)F)c(OCC2CC2)c1)[C@H]1CCCN(S(=O)(=O)c2ccccc2)C1 [Compound 229, 3,5-dichloro-4-((S)-2-(3-(cyclopropylmethoxy)-4-(difluoromethoxy)phenyl)-2-((S)-1-(phenylsulfonyl)piperidine-3-carbonyloxy)ethyl)pyridine 1-oxide] | 0.1 to 1 nM |
| CN(C)C(=O)c1cccc(S(=O)(=O)N2CCO[C@@H](C(=O)O[C@@H](Cc3c(Cl)c[n+]([O-])cc3Cl)c3ccc(OC(F)F)c(OCC4CC4)c3)C2)c1 [Compound 232] | < 0.1 nM |
| CN(C)C(=O)c1cccc(S(=O)(=O)N2CCO[C@H](C(=O)O[C@@H](Cc3c(Cl)c[n+]([O-])cc3Cl)c3ccc(OC(F)F)c(OCC4CC4)c3)C2)c1 [Compound 234, 3,5-dichloro-4-((S)-2-(3-(cyclopropylmethoxy)-4-(difluoromethoxy)phenyl)-2-((S)-4-(3-(dimethylcarbamoyl)phenylsulfonyl)morpholine-2-carbonyloxy)ethyl)pyridine 1-oxide] | < 0.1 nM |
| O=C(C[C@@H]1CCCN1S(=O)(=O)Cc1ccccc1)O[C@@H](Cc1c(Cl)c[n+]([O-])cc1Cl)c1ccc(OC(F)F)c(OCC2CC2)c1 [Compound 237, 4-((S)-2-(2-((S)-1-(benzylsulfonyl)pyrrolidin-2-yl)acetoxy)-2-(3-(cyclopropylmethoxy)-4-(difluoromethoxy)phenyl)ethyl)-3,5-dichloropyridine 1-oxide] | < 0.1 nM |
| CNC(=O)c1cc(S(=O)(=O)N2CCS[C@H]2C(=O)O[C@@H](Cc2c(Cl)c[n+]([O-])cc2Cl)c2ccc(OC(F)F)c(OCC3CC3)c2)cn1C [Compound 241, 3,5-dichloro-4-((S)-2-(3-(cyclopropylmethoxy)-4-(difluoromethoxy)phenyl)-2-((S)-3-(1-methyl-5-(methylcarbamoyl)-1H-pyrrol-3-ylsulfonyl)thiazolidine-2-carbonyloxy)ethyl)pyridine 1-oxide] | < 0.1 nM |
| O=C(O[C@@H](Cc1c(Cl)c[n+]([O-])cc1Cl)c1ccc(OC(F)F)c(OCC2CC2)c1)[C@@H]1SCCN1S(=O)(=O)c1c[nH]c(C(=O)N2CCCC2)c1 [Compound 242, 3,5-dichloro-4-((S)-2-(3-(cyclopropylmethoxy)-4-(difluoromethoxy)phenyl)-2-((S)-3-(5-(pyrrolidine-1-carbonyl)-1H-pyrrol-3-ylsulfonyl)thiazolidine-2-carbonyloxy)ethyl)pyridine 1-oxide] | < 0.1 nM |
| O=C(O[C@@H](Cc1c(Cl)c[n+]([O-])cc1Cl)c1ccc(OC(F)F)c(OCC2CC2)c1)[C@H]1CCCN1S(=O)(=O)c1ccccc1 [Compound 244, 3,5-dichloro-4-((S)-2-(3-(cyclopropylmethoxy)-4-(difluoromethoxy)phenyl)-2-((R)-1-(phenylsulfonyl)pyrrolidine-2-carbonyloxy)ethyl)pyridine 1-oxide] | < 0.1 nM |
| CN(C)C(=O)c1cccc(S(=O)(=O)N2CCC[C@@H]2C(=O)O[C@H](Cc2c(Cl)c[n+]([O-])cc2Cl)c2ccc(OC(F)F)c(OCC3CC3)c2)c1 [Compound 245, 3,5-dichloro-4-((R)-2-(3-(cyclopropylmethoxy)-4-(difluoromethoxy)phenyl)-2-((R)-1-(3-(dimethylcarbamoyl)phenylsulfonyl)pyrrolidine-2-carbonyloxy)ethyl)pyridine 1-oxide] | 1 to 10 nM |
| CN(C)C(=O)c1cccc(S(=O)(=O)N2CCC[C@H]2C(=O)O[C@H](Cc2c(Cl)c[n+]([O-])cc2Cl)c2ccc(OC(F)F)c(OCC3CC3)c2)c1 [Compound 246, 3,5-dichloro-4-((R)-2-(3-(cyclopropylmethoxy)-4-(difluoromethoxy)phenyl)-2-((S)-1-(3-(dimethylcarbamoyl)phenylsulfonyl)pyrrolidine-2-carbonyloxy)ethyl)pyridine 1-oxide] | 1 to 10 nM |
| CN1CCOc2ccc(S(=O)(=O)N3CCC[C@H]3C(=O)O[C@@H](Cc3c(Cl)c[n+]([O-])cc3Cl)c3ccc(OC(F)F)c(OCC4CC4)c3)cc21 [Compound 250, 3,5-dichloro-4-((S)-2-(3-(cyclopropylmethoxy)-4-(difluoromethoxy)phenyl)-2-((S)-1-(4-methyl-3,4-dihydro-2H-benzo[b][1,4]oxazin-6-ylsulfonyl)pyrrolidine-2-carbonyloxy)ethyl)pyridine 1-oxide] | < 0.1 nM |
| O=C(CN1CCC[C@H]1C(=O)O[C@@H](Cc1c(Cl)c[n+]([O-])cc1Cl)c1ccc(OC(F)F)c(OCC2CC2)c1)c1ccccc1 [Compound 256, 3,5-dichloro-4-((S)-2-(3-(cyclopropylmethoxy)-4-(difluoromethoxy)phenyl)-2-((S)-1-(2-oxo-2-phenylethyl)pyrrolidine-2-carbonyloxy)ethyl)pyridine 1-oxide] | < 0.1 nM |
| O=C(O[C@@H](Cc1c(Cl)c[n+]([O-])cc1Cl)c1ccc(OC(F)F)c(OCC2CC2)c1)[C@@H]1CCCN1Cc1ccccc1 [Compound 257, 4-((S)-2-((S)-1-benzylpyrrolidine-2-carbonyloxy)-2-(3-(cyclopropylmethoxy)-4-(difluoromethoxy)phenyl)ethyl)-3,5-dichloropyridine 1-oxide] | 0.1 to 1 nM |
| CN(C)C(=O)c1cccc(CN2CCC[C@H]2C(=O)O[C@@H](Cc2c(Cl)c[n+]([O-])cc2Cl)c2ccc(OC(F)F)c(OCC3CC3)c2)c1 [Compound 258, 3,5-dichloro-4-((S)-2-(3-(cyclopropylmethoxy)-4-(difluoromethoxy)phenyl)-2-((S)-1-(3-(dimethylcarbamoyl)benzyl)pyrrolidine-2-carbonyloxy)ethyl)pyridine 1-oxide] | 0.1 to 1 nM |
| CN(C)C(=O)c1cccc(S(=O)(=O)N2CCS[C@H]2C(=O)O[C@@H](Cc2c(Cl)c[n+]([O-])cc2Cl)c2ccc(OC(F)F)c(O)c2)c1 [Compound 263, 3,5-dichloro-4-((S)-2-(4-(difluoromethoxy)-3-hydroxyphenyl)-2-((S)-3-(3-(dimethylcarbamoyl)phenylsulfonyl)thiazolidine-2-carbonyloxy)ethyl)pyridine 1-oxide] | 0.1 to 1 nM |
| O=C(O[C@@H](Cc1c(Cl)c[n+]([O-])cc1Cl)c1ccc(OC(F)F)c(OCC2CC2)c1)[C@@H]1SCCN1CC1CC1 [Compound 264, 3,5-dichloro-4-((S)-2-(3-(cyclopropylmethoxy)-4-(difluoromethoxy)phenyl)-2-((S)-3-(cyclopropylmethyl)thiazolidine-2-carbonyloxy)ethyl)pyridine 1-oxide] | < 0.1 nM |
| CN(C)C(=O)c1cccc(CN2CCS[C@H]2C(=O)O[C@@H](Cc2c(Cl)c[n+]([O-])cc2Cl)c2ccc(OC(F)F)c(OCC3CC3)c2)c1 [Compound 266, 3,5-dichloro-4-((S)-2-(3-(cyclopropylmethoxy)-4-(difluoromethoxy)phenyl)-2-((S)-3-(3-(dimethylcarbamoyl)benzyl)thiazolidine-2-carbonyloxy)ethyl)pyridine 1-oxide] | < 0.1 nM |
| NC(=O)Nc1cccc(S(=O)(=O)N2CCS[C@H]2C(=O)O[C@@H](Cc2c(Cl)c[n+]([O-])cc2Cl)c2ccc(OC(F)F)c(OCC3CC3)c2)c1 [Compound 269, 3,5-dichloro-4-((S)-2-(3-(cyclopropylmethoxy)-4-(difluoromethoxy)phenyl)-2-((S)-3-(3-ureidophenylsulfonyl)thiazolidine-2-carbonyloxy)ethyl)pyridine 1-oxide] | < 0.1 nM |
| O=C(O[C@@H](Cc1c(Cl)c[n+]([O-])cc1Cl)c1ccc(OC(F)F)c(OCC2CC2)c1)[C@@H]1SCCN1S(=O)(=O)c1cccc(CO)c1 [Compound 271, 3,5-dichloro-4-((S)-2-(3-(cyclopropylmethoxy)-4-(difluoromethoxy)phenyl)-2-((S)-3-(3-(hydroxymethyl)phenylsulfonyl)thiazolidine-2-carbonyloxy)ethyl)pyridine 1-oxide] | < 0.1 nM |
| O=C(CC1SCCN1C(=O)c1ccccc1)O[C@@H](Cc1c(Cl)c[n+]([O-])cc1Cl)c1ccc(OC(F)F)c(OCC2CC2)c1 (stereo partly drawn) [Compound 274, 4-((2S)-2-(2-(3-benzoylthiazolidin-2-yl)acetoxy)-2-(3-(cyclopropylmethoxy)-4-(difluoromethoxy)phenyl)ethyl)-3,5-dichloropyridine 1-oxide] | < 0.1 nM |
| O=C(CC1SCCN1S(=O)(=O)c1ccccc1)O[C@@H](Cc1c(Cl)c[n+]([O-])cc1Cl)c1ccc(OC(F)F)c(OCC2CC2)c1 (stereo partly drawn) [Compound 278, 3,5-dichloro-4-((2S)-2-(3-(cyclopropylmethoxy)-4-(difluoromethoxy)phenyl)-2-(2-(3-(phenylsulfonyl)thiazolidin-2-yl)acetoxy)ethyl)pyridine 1-oxide] | < 0.1 nM |
